Results reported in the antibiotic and cytotoxicity screens of Wong et al. (2023).
The other results are listed elsewhere or left out.

Each compound was assayed on S. aureus RN4220 (assay: growth inhibition call (relative growth <= 0.2)). Conditions: 50 µM.

Growth inhibition call, inactive:
C[C@H]1CN([C@@H](C)CO)C(=O)Cc2cc(NS(=O)(=O)c3cn(C)cn3)ccc2O[C@H]1CN(C)C(=O)Nc1ccc2c(c1)OCO2, C[C@@H]1CN([C@@H](C)CO)S(=O)(=O)c2ccc(C#Cc3ccncc3)cc2O[C@H]1CN(C)C(=O)C1CCC1, Cc1ccc(S(=O)(=O)N[C@@H]2CC[C@@H](CC(=O)NCc3ccc(Cl)c(Cl)c3)O[C@H]2CO)cc1, COc1cccc(CNC(=O)C[C@H]2C=C[C@H](NC(=O)C3CCOCC3)[C@H](CO)O2)c1, CCOC(=O)Nc1nc2ccccc2[nH]1, Cc1ccc(S(=O)(=O)Nc2ccc3c(c2)C(=O)N([C@H](C)CO)C[C@@H](C)[C@@H](CN(C)Cc2ccc(C(F)(F)F)cc2)OCCCC[C@@H](C)O3)cc1, C[C@H]1CN([C@@H](C)CO)C(=O)c2cccc(NS(=O)(=O)c3cccs3)c2O[C@@H]1CN(C)Cc1ccc(-c2ccccc2)cc1, COc1ccc(S(=O)(=O)N(C)C[C@H]2Oc3ccc(NS(=O)(=O)c4ccccc4)cc3CC(=O)N([C@H](C)CO)C[C@@H]2C)cc1, C[C@@H]1CN([C@H](C)CO)C(=O)Cc2cc(NS(C)(=O)=O)ccc2O[C@H]1CN(C)C(=O)Nc1ccc(C(F)(F)F)cc1, COc1ccc(S(=O)(=O)Nc2ccc3c(c2)C(=O)N([C@H](C)CO)C[C@@H](C)[C@H](CN(C)S(=O)(=O)c2cn(C)cn2)O3)cc1, C[C@H](CO)N1C[C@H](C)[C@H](CN(C)CC2CC2)Oc2ccc(NC(=O)Cn3cnnn3)cc2CC1=O, CCCN(C)C[C@H]1OCCCC[C@H](C)Oc2ccc(NC(=O)NC3CCCCC3)cc2C(=O)N([C@@H](C)CO)C[C@H]1C
